# PMC12820563, “FoxP3 forms a head-to-head dimer in vivo and stabilizes its multimerization on adjacent microsatellites”
# The list shows a part of the results.
# Target: T1, MBP-FoxP1dN (Mus musculus, UniProt P58462 326-579)
# T1 sequence: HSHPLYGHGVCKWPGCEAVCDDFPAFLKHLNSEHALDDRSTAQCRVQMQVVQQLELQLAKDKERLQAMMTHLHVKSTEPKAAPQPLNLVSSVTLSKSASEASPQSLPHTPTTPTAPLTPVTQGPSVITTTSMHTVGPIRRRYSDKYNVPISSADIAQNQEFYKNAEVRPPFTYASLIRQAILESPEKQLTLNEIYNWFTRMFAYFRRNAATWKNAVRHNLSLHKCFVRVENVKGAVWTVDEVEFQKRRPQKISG
# Test: PD-seq (MBP pull-down with sequencing); 20 mM Tris-HCl pH 7.5, 100 mM NaCl, 1.5 mM MgCl2, 0.4 uM protein, 0.1 uM dsDNA library, 30 min, room temperature, amylose pull-down; high values mean tight binding
# Conditions: protein: recombinant; tags: His6-MBP; chain copies: 2; dsDNA, one strand shown
# Method in brief: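 In Tris pH 7.5 buffer with NaCl and MgCl2, 0.4 µM His6-MBP-tagged mouse FoxP3 or FoxP1 fragment lacking the N-terminus, from E. coli, met 0.1 µM Klenow-filled double-stranded degenerate DNA library for 30 min at room temperature. Three washes on amylose resin followed capture of the complexes, then proteinase K release of DNA, PCR barcoding and Illumina sequencing. Binding is taken as pooled-replicate reads-per-million enrichment of pull-down relative to input.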
row,Sequence,binding signal
1,GATGATTGTTCTCCCAGCTGATGAATTTGGACTTTCGAGTAAACAAATTTTCCTAATCTTTCTGTTCAAGCGCCATCTAC,0.93 RPM ratio (pull-down/input)
2,GATGATTGTTCTCCCAGCTGATGAATTCACCGCTTCGAGTAAACAAATTTTCCTAATCTTTCTGTTCAAGCGCCATCTAC,0.855 RPM ratio (pull-down/input)
3,GATGATTGTTCTCCCAGCTGATGAATTACATGGGTCGAGTAAACAAATTTTCCTAATCTTTCTGTTCAAGCGCCATCTAC,0.956 RPM ratio (pull-down/input)
4,GATGATTGTTCTCCCAGCTGATGAATTGGAGCATTCGAGTAAACAAATTTTCCTAATCTTTCTGTTCAAGCGCCATCTAC,1.03 RPM ratio (pull-down/input)
5,GATGATTGTTCTCCCAGCTGATGAATTACACACCTCGAGTAAACAAATTTTCCTAATCTTTCTGTTCAAGCGCCATCTAC,1.24 RPM ratio (pull-down/input)
6,GATGATTGTTCTCCCAGCTGATGAATTTATGATTTCGAGTAAACAAATTTTCCTAATCTTTCTGTTCAAGCGCCATCTAC,1.37 RPM ratio (pull-down/input)
7,GATGATTGTTCTCCCAGCTGATGAATTTGTAACATCGAGTAAACAAATTTTCCTAATCTTTCTGTTCAAGCGCCATCTAC,1.45 RPM ratio (pull-down/input)
8,GATGATTGTTCTCCCAGCTGATGAATTATGCTTATCGAGTAAACAAATTTTCCTAATCTTTCTGTTCAAGCGCCATCTAC,1.63 RPM ratio (pull-down/input)
9,GATGATTGTTCTCCCAGCTGATGAATTCATCCTTTCGAGTAAACAAATTTTCCTAATCTTTCTGTTCAAGCGCCATCTAC,0.917 RPM ratio (pull-down/input)
10,GATGATTGTTCTCCCAGCTGATGAATTAGATTGCTCGAGTAAACAAATTTTCCTAATCTTTCTGTTCAAGCGCCATCTAC,0.987 RPM ratio (pull-down/input)
11,GATGATTGTTCTCCCAGCTGATGAATTGGCTCCGTCGAGTAAACAAATTTTCCTAATCTTTCTGTTCAAGCGCCATCTAC,0.78 RPM ratio (pull-down/input)
12,GATGATTGTTCTCCCAGCTGATGAATTGTATATATCGAGTAAACAAATTTTCCTAATCTTTCTGTTCAAGCGCCATCTAC,1.6 RPM ratio (pull-down/input)
13,GATGATTGTTCTCCCAGCTGATGAATTGTAATGTTCGAGTAAACAAATTTTCCTAATCTTTCTGTTCAAGCGCCATCTAC,1.05 RPM ratio (pull-down/input)
14,GATGATTGTTCTCCCAGCTGATGAATTGATTGTATCGAGTAAACAAATTTTCCTAATCTTTCTGTTCAAGCGCCATCTAC,1.54 RPM ratio (pull-down/input)
15,GATGATTGTTCTCCCAGCTGATGAATTGGGTGAATCGAGTAAACAAATTTTCCTAATCTTTCTGTTCAAGCGCCATCTAC,0.922 RPM ratio (pull-down/input)
16,GATGATTGTTCTCCCAGCTGATGAATTCCCCGCTTCGAGTAAACAAATTTTCCTAATCTTTCTGTTCAAGCGCCATCTAC,0.77 RPM ratio (pull-down/input)

row,Sequence,binding signal
1,GATGATTGTTCTCCCAGCTGATGAATTCGGATAATCGAGTAAACAAATTTTCCTAATCTTTCTGTTCAAGCGCCATCTAC,1.08 RPM ratio (pull-down/input)
2,GATGATTGTTCTCCCAGCTGATGAATTCAGGTGCTCGAGTAAACAAATTTTCCTAATCTTTCTGTTCAAGCGCCATCTAC,0.812 RPM ratio (pull-down/input)
3,GATGATTGTTCTCCCAGCTGATGAATTACTCAACTCGAGTAAACAAATTTTCCTAATCTTTCTGTTCAAGCGCCATCTAC,1.08 RPM ratio (pull-down/input)
4,GATGATTGTTCTCCCAGCTGATGAATTGCCTCATTCGAGTAAACAAATTTTCCTAATCTTTCTGTTCAAGCGCCATCTAC,1.05 RPM ratio (pull-down/input)
5,GATGATTGTTCTCCCAGCTGATGAATTGACGAAATCGAGTAAACAAATTTTCCTAATCTTTCTGTTCAAGCGCCATCTAC,1.25 RPM ratio (pull-down/input)
6,GATGATTGTTCTCCCAGCTGATGAATTGGGATGCTCGAGTAAACAAATTTTCCTAATCTTTCTGTTCAAGCGCCATCTAC,1.11 RPM ratio (pull-down/input)
7,GATGATTGTTCTCCCAGCTGATGAATTGAGGGACTCGAGTAAACAAATTTTCCTAATCTTTCTGTTCAAGCGCCATCTAC,0.774 RPM ratio (pull-down/input)
8,GATGATTGTTCTCCCAGCTGATGAATTCGTCTCCTCGAGTAAACAAATTTTCCTAATCTTTCTGTTCAAGCGCCATCTAC,0.869 RPM ratio (pull-down/input)
9,GATGATTGTTCTCCCAGCTGATGAATTCTGTCACTCGAGTAAACAAATTTTCCTAATCTTTCTGTTCAAGCGCCATCTAC,1.09 RPM ratio (pull-down/input)
10,GATGATTGTTCTCCCAGCTGATGAATTGGTCGATTCGAGTAAACAAATTTTCCTAATCTTTCTGTTCAAGCGCCATCTAC,0.891 RPM ratio (pull-down/input)
11,GATGATTGTTCTCCCAGCTGATGAATTGTTAATTTCGAGTAAACAAATTTTCCTAATCTTTCTGTTCAAGCGCCATCTAC,1.43 RPM ratio (pull-down/input)
12,GATGATTGTTCTCCCAGCTGATGAATTACGGTCCTCGAGTAAACAAATTTTCCTAATCTTTCTGTTCAAGCGCCATCTAC,0.864 RPM ratio (pull-down/input)
13,GATGATTGTTCTCCCAGCTGATGAATTATCGCATTCGAGTAAACAAATTTTCCTAATCTTTCTGTTCAAGCGCCATCTAC,1.4 RPM ratio (pull-down/input)
14,GATGATTGTTCTCCCAGCTGATGAATTGCTCGTATCGAGTAAACAAATTTTCCTAATCTTTCTGTTCAAGCGCCATCTAC,1.05 RPM ratio (pull-down/input)
15,GATGATTGTTCTCCCAGCTGATGAATTTGTGTGATCGAGTAAACAAATTTTCCTAATCTTTCTGTTCAAGCGCCATCTAC,1.3 RPM ratio (pull-down/input)
